# The list shows a part of the results.
# Assays:
# Experiment in all cases: glycan array binding signal (z-score within array); higher = stronger binding
# Settings in all cases: glycan notation: IUPAC condensed, linker removed
# [1] = molecular target: Neu5Ac(a2-3)Gal(b1-3)GlcNAc6S
# Procedure, shortened: (§1)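 Negative Z-scores can be read as non-binding. The Z-score is calculated within each array and then averaged across arrays of one protein sequence at different concentrations or buffers and across linkers. Arrays, 3228 in all, were curated from the Consortium for Functional Glycomics database and kept only where the protein sequence was available.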
# [2] = molecular target: Neu5Ac(a2-3)Gal(b1-3)[Fuc(a1-4)]GlcNAc
# Procedure, shortened: as §1
# [3] = molecular target: Neu5Ac(a2-3)Gal(b1-3)[Fuc(a1-4)]GlcNAc(b1-3)Gal(b1-3)[Fuc(a1-4)]GlcNAc
# Procedure, shortened: as §1
# [4] = molecular target: Neu5Ac(a2-3)Gal(b1-3)[Fuc(a1-4)]GlcNAc(b1-3)Gal(b1-4)[Fuc(a1-3)]GlcNAc
# Procedure, shortened: as §1
# [5] = molecular target: Neu5Ac(a2-3)Gal(b1-3)[GlcNAc(b1-6)]GalNAc
# Procedure, shortened: as §1
# [6] = molecular target: Neu5Ac(a2-3)Gal(b1-3)[Neu5Ac(a2-6)]GalNAc
# Procedure, shortened: as §1
# [7] = molecular target: Neu5Ac(a2-3)Gal(b1-3)[Neu5Ac(a2-6)]GlcNAc(b1-3)[Fuc(a1-3)[Gal(b1-4)]GlcNAc(b1-6)]Gal(b1-4)Glc
# Procedure, shortened: as §1
# [8] = molecular target: Neu5Ac(a2-3)Gal(b1-3)]Neu5Ac(a2-3)Gal(b1-4)]GlcNAc
# Procedure, shortened: as §1
# Neu5Ac(a2-3)Gal(b1-4)Glc = molecular target: Neu5Ac(a2-3)Gal(b1-4)Glc
# Procedure, shortened: as §1
# [9] = molecular target: Neu5Ac(a2-3)Gal(b1-4)GlcNAc
# Procedure, shortened: as §1
# [10] = molecular target: Neu5Ac(a2-3)Gal(b1-4)GlcNAc(b1-2)Man
# Procedure, shortened: as §1
# [11] = molecular target: Neu5Ac(a2-3)Gal(b1-4)GlcNAc(b1-2)Man(a1-3)[GlcNAc(b1-4)][Neu5Ac(a2-3)Gal(b1-4)GlcNAc(b1-2)Man(a1-6)]Man(b1-4)GlcNAc(b1-4)GlcNAc
# Procedure, shortened: as §1
# [12] = molecular target: Neu5Ac(a2-3)Gal(b1-4)GlcNAc(b1-2)Man(a1-3)[Neu5Ac(a2-3)Gal(b1-4)GlcNAc(b1-2)Man(a1-6)]Man(b1-4)GlcNAc(b1-4)GlcNAc
# Procedure, shortened: as §1
# [13] = molecular target: Neu5Ac(a2-3)Gal(b1-4)GlcNAc(b1-2)Man(a1-3)[Neu5Ac(a2-3)Gal(b1-4)GlcNAc(b1-2)Man(a1-6)]Man(b1-4)GlcNAc(b1-4)[Fuc(a1-6)]GlcNAc
# Procedure, shortened: as §1
# [14] = molecular target: Neu5Ac(a2-3)Gal(b1-4)GlcNAc(b1-2)Man(a1-3)[Neu5Ac(a2-6)Gal(b1-4)GlcNAc(b1-2)Man(a1-6)]Man(b1-4)GlcNAc(b1-4)GlcNAc
# Procedure, shortened: as §1
# [15] = molecular target: Neu5Ac(a2-3)Gal(b1-4)GlcNAc(b1-2)[Neu5Ac(a2-3)Gal(b1-4)GlcNAc(b1-4)]Man(a1-3)[GlcNAc(b1-4)][Neu5Ac(a2-3)Gal(b1-4)GlcNAc(b1-2)[Neu5Ac(a2-3)Gal(b1-4)GlcNAc(b1-6)]Man(a1-6)]Man(b1-4)GlcNAc(b1-4)GlcNAc
# Procedure, shortened: as §1
# [16] = molecular target: Neu5Ac(a2-3)Gal(b1-4)GlcNAc(b1-2)[Neu5Ac(a2-3)Gal(b1-4)GlcNAc(b1-4)]Man(a1-3)[GlcNAc(b1-4)][Neu5Ac(a2-3)Gal(b1-4)GlcNAc(b1-4)Man(a1-6)]Man(b1-4)GlcNAc(b1-4)GlcNAc
# Procedure, shortened: as §1
# [17] = molecular target: Neu5Ac(a2-3)Gal(b1-4)GlcNAc(b1-2)[Neu5Ac(a2-3)Gal(b1-4)GlcNAc(b1-6)]Man(a1-6)[Neu5Ac(a2-3)Gal(b1-4)GlcNAc(b1-2)Man(a1-3)][GlcNAc(b1-4)]Man(b1-4)GlcNAc(b1-4)GlcNAc
# Procedure, shortened: as §1
# [18] = molecular target: Neu5Ac(a2-3)Gal(b1-4)GlcNAc(b1-3)Gal
# Procedure, shortened: as §1
# [19] = molecular target: Neu5Ac(a2-3)Gal(b1-4)GlcNAc(b1-3)Gal(b1-3)GlcNAc
# Procedure, shortened: as §1
# [20] = molecular target: Neu5Ac(a2-3)Gal(b1-4)GlcNAc(b1-3)Gal(b1-4)GlcNAc
# Procedure, shortened: as §1
# [21] = molecular target: Neu5Ac(a2-3)Gal(b1-4)GlcNAc(b1-3)Gal(b1-4)GlcNAc(b1-2)Man(a1-3)[Neu5Ac(a2-3)Gal(b1-4)GlcNAc(b1-3)Gal(b1-4)GlcNAc(b1-2)Man(a1-6)]Man(b1-4)GlcNAc(b1-4)GlcNAc
# Procedure, shortened: as §1
# [22] = molecular target: Neu5Ac(a2-3)Gal(b1-4)GlcNAc(b1-3)Gal(b1-4)GlcNAc(b1-3)Gal(b1-4)GlcNAc
# Procedure, shortened: as §1
# [23] = molecular target: Neu5Ac(a2-3)Gal(b1-4)GlcNAc(b1-3)Gal(b1-4)GlcNAc(b1-3)Gal(b1-4)GlcNAc(b1-2)Man(a1-3)[Neu5Ac(a2-3)Gal(b1-4)GlcNAc(b1-3)Gal(b1-4)GlcNAc(b1-3)Gal(b1-4)GlcNAc(b1-2)Man(a1-6)]GalNAc
# Procedure, shortened: as §1
# [24] = molecular target: Neu5Ac(a2-3)Gal(b1-4)GlcNAc(b1-3)Gal(b1-4)GlcNAc(b1-3)GalNAc
# Procedure, shortened: as §1
# [25] = molecular target: Neu5Ac(a2-3)Gal(b1-4)GlcNAc(b1-3)Gal(b1-4)GlcNAc(b1-3)[Neu5Ac(a2-3)Gal(b1-4)GlcNAc(b1-3)Gal(b1-4)GlcNAc(b1-6)]GalNAc
# Procedure, shortened: as §1
# [26] = molecular target: Neu5Ac(a2-3)Gal(b1-4)GlcNAc(b1-3)Gal(b1-4)GlcNAc(b1-6)[Gal(b1-3)]GalNAc
# Procedure, shortened: as §1
# [27] = molecular target: Neu5Ac(a2-3)Gal(b1-4)GlcNAc(b1-3)Gal(b1-4)[Fuc(a1-3)]GlcNAc
# Procedure, shortened: as §1
# [28] = molecular target: Neu5Ac(a2-3)Gal(b1-4)GlcNAc(b1-3)GalNAc
# Procedure, shortened: as §1
# [29] = molecular target: Neu5Ac(a2-3)Gal(b1-4)GlcNAc(b1-3)[Neu5Ac(a2-3)Gal(b1-4)GlcNAc(b1-6)]GalNAc
# Procedure, shortened: as §1
# [30] = molecular target: Neu5Ac(a2-3)Gal(b1-4)GlcNAc(b1-6)GalNAc
# Procedure, shortened: as §1
# [31] = molecular target: Neu5Ac(a2-3)Gal(b1-4)GlcNAc(b1-6)[Gal(b1-3)]GalNAc
# Procedure, shortened: as §1
# [32] = molecular target: Neu5Ac(a2-3)Gal(b1-4)GlcNAc(b1-6)[Neu5Ac(a2-3)Gal(b1-3)]GalNAc
# Procedure, shortened: as §1
# [33] = molecular target: Neu5Ac(a2-3)Gal(b1-4)GlcNAc6S
# Procedure, shortened: as §1
# [34] = molecular target: Neu5Ac(a2-3)Gal(b1-4)[Fuc(a1-3)]GlcNAc
# Procedure, shortened: as §1
# [35] = molecular target: Neu5Ac(a2-3)Gal(b1-4)[Fuc(a1-3)]GlcNAc(b1-2)Man
# Procedure, shortened: as §1
# [36] = molecular target: Neu5Ac(a2-3)Gal(b1-4)[Fuc(a1-3)]GlcNAc(b1-3)Gal
# Procedure, shortened: as §1
# [37] = molecular target: Neu5Ac(a2-3)Gal(b1-4)[Fuc(a1-3)]GlcNAc(b1-3)Gal(b1-4)GlcNAc
# Procedure, shortened: as §1
# [38] = molecular target: Neu5Ac(a2-3)Gal(b1-4)[Fuc(a1-3)]GlcNAc(b1-3)Gal(b1-4)[Fuc(a1-3)]GlcNAc(b1-3)Gal(b1-4)[Fuc(a1-3)]GlcNAc
# Procedure, shortened: as §1
# [39] = molecular target: Neu5Ac(a2-3)Gal(b1-4)[Fuc(a1-3)]GlcNAc(b1-3)GalNAc
# Procedure, shortened: as §1
# [40] = molecular target: Neu5Ac(a2-3)Gal(b1-4)[Fuc(a1-3)]GlcNAc(b1-6)[Gal(b1-3)]GalNAc
# Procedure, shortened: as §1
# [41] = molecular target: Neu5Ac(a2-3)Gal(b1-4)[Fuc(a1-3)]GlcNAc(b1-6)[Neu5Ac(a2-3)Gal(b1-3)]GalNAc
# Procedure, shortened: as §1
# [42] = molecular target: Neu5Ac(a2-3)Gal(b1-4)[Fuc(a1-3)]GlcNAc6S
# Procedure, shortened: as §1
# [43] = molecular target: Neu5Ac(a2-3)Gal6S(b1-4)GlcNAc
# Procedure, shortened: as §1
# [44] = molecular target: Neu5Ac(a2-3)Gal6S(b1-4)[Fuc(a1-3)]GlcNAc
# Procedure, shortened: as §1
binder,measurement,setting,value
CBM40 CPF071 (Clostridium perfringens) (protein) MAHHHHHHVGTGSNDDDDKSPDPMLSSLGEYKDINLESSNASNITYDLEKYKNLDEGTIVVRFNSKDSKIQSLLGISNSKTKNGYFNFYVTNSRVGFELRNQKNEGNTQNGTENLVHMYKDVALNDGDNTVALKIEKNKGYKLFLNGKMIKEVKDTNTKFLNNIENLDSAFIGKTNRYGQSNEYNFKGNIGFMNIYNEPLGDDYLLSKTGETK,glycan array binding signal (z-score),[1],0.31
same,glycan array binding signal (z-score),[2],2.38
same,glycan array binding signal (z-score),[3],0.256
same,glycan array binding signal (z-score),[4],1.09
same,glycan array binding signal (z-score),[5],-0.254
same,glycan array binding signal (z-score),[6],-0.107
same,glycan array binding signal (z-score),[7],1.15
same,glycan array binding signal (z-score),[8],10.7
same,glycan array binding signal (z-score),Neu5Ac(a2-3)Gal(b1-4)Glc,1.88
same,glycan array binding signal (z-score),[9],1.39
same,glycan array binding signal (z-score),[10],0.05
same,glycan array binding signal (z-score),[11],0.421
same,glycan array binding signal (z-score),[12],-0.305
same,glycan array binding signal (z-score),[13],0.711
same,glycan array binding signal (z-score),[14],0.048
same,glycan array binding signal (z-score),[15],-0.082
same,glycan array binding signal (z-score),[16],-0.287
same,glycan array binding signal (z-score),[17],0.7
same,glycan array binding signal (z-score),[18],1.47
same,glycan array binding signal (z-score),[19],0.735
same,glycan array binding signal (z-score),[20],1.96
same,glycan array binding signal (z-score),[21],1.05
same,glycan array binding signal (z-score),[22],1.63
same,glycan array binding signal (z-score),[23],0.275
same,glycan array binding signal (z-score),[24],0.084
same,glycan array binding signal (z-score),[25],0.425
same,glycan array binding signal (z-score),[26],-0.141
same,glycan array binding signal (z-score),[27],-0.365
same,glycan array binding signal (z-score),[28],0.209
same,glycan array binding signal (z-score),[29],0.202
same,glycan array binding signal (z-score),[30],-0.131
same,glycan array binding signal (z-score),[31],0.911
same,glycan array binding signal (z-score),[32],0.122
same,glycan array binding signal (z-score),[33],5.07
same,glycan array binding signal (z-score),[34],0.895
same,glycan array binding signal (z-score),[35],-0.072
same,glycan array binding signal (z-score),[36],1.97
same,glycan array binding signal (z-score),[37],0.818
same,glycan array binding signal (z-score),[38],0.223
same,glycan array binding signal (z-score),[39],0.146
same,glycan array binding signal (z-score),[40],-0.129
same,glycan array binding signal (z-score),[41],0.036
same,glycan array binding signal (z-score),[42],1.96
same,glycan array binding signal (z-score),[43],16.3
same,glycan array binding signal (z-score),[44],5.09

# Source: the supplement of paper PMC8728848
